From PubChem BioAssay (NCATS)
Where “and” joins values, the source holds several entries; their conditions need not be identical. Equal values may be shown once. Some of the results follow. The main result of the screen is listed elsewhere. These columns were measured beside it and carry no call. Most of these compounds were active or inconclusive in the main read-out, so they are no random draw. For some assays here: Words in brackets tell the shape of the fitted curve; partial curves, single points and poor fits give uncertain potencies.

Columns and labels:
[1] = qHTS Assay for Lipid Storage Modulators (AID 1519); settings: Drosophila S3 cells, BODIPY lipid droplet/cell ratio, laser cytometry, cells loaded with oleic acid
In short: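 Cells seeded at 5,000 per well were treated with compounds over a concentration series and loaded with oleic acid (400 uM, as added). Lipid droplet fluorescence (488 nm excitation, 500-530 nm channel) was read by laser-scanning cytometry and normalized to 20 uM Triacsin C.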

[2] = qHTS Assay for Modulators of Human Peripheral Myelin Protein 22 (PMP22) Expression/Activity (AID 1967); settings: Cell-based PMP22 reporter, dual-color luciferase ratio; measured here: red reporter channel AC50; EF-alpha promoter control reporter in MSC80 mouse Schwann cells
In short: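 Quantitative HTS in a mouse Schwann cell line expressing dual click beetle luciferases: Pmp22 promoter (green) and control EF-alpha promoter (red). After 24h treatment, corrected green/red signal ratio gave %Activity relative to untreated cells.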

[3] = biological target: Histamine N-methyltransferase (Homo sapiens) (UniProt P50135); test: Confirmatory Screen for Target Class Profiling of Small Molecule Inhibitors of Methyltransferases (AID 1745852); settings: MTase-Glo luminescence, SAH detection, recombinant enzyme; measured here: HNMT inhibition potency;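 further: inhibitor potency for blocking SAH production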
Sequence of UniProt P50135 (P50135 whole entry, looked up): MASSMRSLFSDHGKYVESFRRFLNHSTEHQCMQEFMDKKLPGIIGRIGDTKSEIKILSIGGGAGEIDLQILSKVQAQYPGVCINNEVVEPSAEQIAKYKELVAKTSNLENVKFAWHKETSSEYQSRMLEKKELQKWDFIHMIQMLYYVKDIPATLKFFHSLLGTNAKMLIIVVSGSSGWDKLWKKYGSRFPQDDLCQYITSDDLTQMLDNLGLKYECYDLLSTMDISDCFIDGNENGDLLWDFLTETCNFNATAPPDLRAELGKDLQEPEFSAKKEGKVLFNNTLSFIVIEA

[4] = qHTS assay for small molecule antagonists of androgen receptor signaling (AID 588516); settings: AR-UAS-bla HEK293, beta-lactamase ratio, antagonist mode, 16 h
In short: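 Antagonist mode: inhibition of R1881-stimulated (10 nM final) bla reporter in GeneBLAzer AR HEK 293 cells, 16 h at 37C, compounds titrated. IC50 and efficacy from Hill-equation fits of 405/460–530 nm FRET ratios.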

[5] = qHTS assay for small molecule antagonists of peroxisome proliferator-activated receptor delta signaling (AID 588535); settings: HEK293T PPARd-UAS-bla, beta-lactamase FRET ratio, 18 h; 460 nm channel;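 further: cells co-treated with a PPAR-delta agonist as stimulator during compound exposure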
In short: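 Fluorescence from CCF4-loaded GeneBLAzer PPAR-delta-UAS-bla HEK293T cells (2 hrs RT loading) quantified reporter inhibition after an 18 hr, 37 C compound exposure across a titration.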

[6] = qHTS assay for small molecule antagonists of peroxisome proliferator-activated receptor gamma signaling (AID 588537); settings: HEK293 PPARg-UAS-bla, beta-lactamase ratio, antagonist mode; measured here: W460 blue channel
In short: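 Fluorescence at 460 and 530 nm (405 nm excitation) reported beta-lactamase cleavage of CCF4 after 2 h room-temperature loading. HEK293 reporter cells in 1% charcoal/dextran-treated FBS had received compound and rosiglitazone for 16 h.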

[7] = qHTS assay for small molecule antagonists of vitamin D receptor signaling (AID 588541); settings: HEK293T VDR-UAS-bla, beta-lactamase ratio, antagonist mode; measured here: W460 blue channel (cell viability)
[8] = qHTS assay for small molecule agonists of retinoid X receptor alpha signaling (AID 588544); settings: HEK293T RXRa-UAS-bla, beta-lactamase reporter, 18 h; 530 nm emission
[9] = S16 Schwann cell PMP22 intronic element beta-lactamase assay (AID 624044); settings: S16 rat Schwann cells, PMP22 element beta-lactamase FRET, 24 h; further: nearly all actives have a fitted effect of over 15% in size
In short: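 Beta-lactamase reporter under a PMP22 intronic regulatory element in stable S16 rat Schwann cells; 24 h compound exposure. 460 nm blue signal normalized between DMSO (0%) and potassium clavulanate, with 535 nm FRET tracking viability; curves classed by r2 and response.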

[10] = A High-Content qHTS Against Drug Library for the Identification of Small Molecules that Inhibit DYT1 Early Onset Primary Dystonia-Associated Cell Pathology (AID 1645839); settings: HEK293 Flp-In EGFP-delE TorsinA, punctate imaging, 48 h; measured here: cell count cytotoxicity
In short: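 Cells were seeded and left for 24 h, then dosed with compound alongside tetracycline induction of mutant EGFP-TorsinA. They were incubated for 48 h, fixed in 4% paraformaldehyde, permeabilized and imaged for mislocalization (%pathology) and cell count.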

[11] = biological target: Catechol O-methyltransferase (Homo sapiens) (UniProt P21964); test: Confirmatory Screen for Target Class Profiling of Small Molecule Inhibitors of Methyltransferases (AID 1745852); settings: MTase-Glo luminescence, SAH detection, recombinant enzyme; measured here: COMT inhibition potency;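 further: inhibitor potency for blocking SAH production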
Sequence of UniProt P21964 (P21964 whole entry, looked up): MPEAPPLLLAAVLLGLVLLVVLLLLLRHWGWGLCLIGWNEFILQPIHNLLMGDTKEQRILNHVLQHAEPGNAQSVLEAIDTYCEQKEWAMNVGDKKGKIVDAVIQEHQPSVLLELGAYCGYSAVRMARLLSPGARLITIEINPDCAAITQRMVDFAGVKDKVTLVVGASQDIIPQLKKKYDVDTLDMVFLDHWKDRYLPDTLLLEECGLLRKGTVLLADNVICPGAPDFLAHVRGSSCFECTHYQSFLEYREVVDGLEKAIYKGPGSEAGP

[12] = measured here: cell count channel max response
[13] = measured here: cell number channel AC50
[14] = measured here: lipid (BODIPY) channel AC50
[15] = measured here: lipid channel max response
Tags describe the fitted curve by direction and shape.

With `NCCc1c[nH]c2ccccc12` the max response [1, 12] was 32.1%, the AC50 [1, 13] was 39.8 µM [rising, single point] and the AC50 [1, 14] was 39.8 µM [rising, single point]. The max response [1, 15] was 32%, the AC50 [2] was 95.3 µM [falling, single point] and the IC50 [3] was 1.93 µM [falling, full curve].
For `CC[C@@H]1CN2CCc3cc(OC)c(OC)cc3[C@@H]2C[C@@H]1C[C@H]1NCCc2cc(OC)c(OC)cc21`, the max response [1, 12] was 48.1%, the AC50 [1, 13] was 0.562 µM [rising, full curve, poor fit] and the AC50 [1, 14] was 0.447 µM [rising, full curve, poor fit]. For the same compound, the max response [1, 15] was 11.5%.
In the case of `CN1C[C@@H](C(=O)N[C@@]2(C)O[C@]3(O)C4CCCN4C(=O)[C@@H](Cc4ccccc4)N3C2=O)C=C2c3cccc4[nH]cc(c34)C[C@@H]21` (some centres not stated), the max response [1, 12] was 60.4%, the AC50 [1, 13] was 31.6 µM [rising, partial curve, poor fit] and the AC50 [1, 14] was 31.6 µM [rising, partial curve, poor fit]. The max response [1, 15] was 78.3%.
For `C[C@H]1O[C@@H](O[C@H]2[C@@H](O)C[C@H](O[C@H]3[C@@H](O)C[C@H](O[C@H]4CC[C@]5(C)C6CC[C@]7(C)[C@@H](C8=CC(=O)OC8)CC[C@]7(O)C6CC[C@@H]5C4)O[C@@H]3C)O[C@@H]2C)C[C@H](O)[C@@H]1O` (some centres not stated), the max response [1, 12] was 33.7%, the AC50 [1, 13] was 6.31 µM [rising, partial curve, poor fit] and the AC50 [1, 14] was 4.47 µM [rising, partial curve, poor fit]. It also gave a max response [1, 15] of 38.4%.
In the case of `NCCc1c[nH]c2ccc(O)cc12`, the max response [1, 12] was -82.5%, the AC50 [1, 13] was 44.7 µM [falling, partial curve, poor fit] and the AC50 [1, 14] was 44.7 µM [falling, partial curve, poor fit]. The max response [1, 15] was -83.3%.
For `CNC(=O)Oc1ccc2c(c1)[C@@]1(C)CCN(C)C1N2C` (some centres not stated), the max response [1, 12] was 36.7% and 14%, the AC50 [1, 13] was 39.8 µM [rising, single point] and the AC50 [1, 14] was 3.98 µM [rising, partial curve, poor fit]. For the same compound, the max response [1, 15] was 50.9% and 31.3%.
With `NCC(N)C(=O)c1ccccc1` (configuration not stated) the max response [1, 12] was 30.4%, the AC50 [1, 13] was 35.5 µM [rising, single point] and the AC50 [1, 14] was 31.6 µM [rising, single point]. The max response [1, 15] was 41.6%.
In the case of `COc1cc2c(c(OC)c1OC)-c1ccc(OC)c(=O)cc1[C@H](NC(C)=O)CC2`, the max response [1, 12] was 61.9%, the AC50 [1, 13] was 1 µM [rising, full curve, poor fit] and the AC50 [1, 14] was 0.708 µM [rising, full curve, poor fit]. The max response [1, 15] was 63.1%.
In the case of `O=C(Oc1ccccc1)N1CCC2(CCCN(Cc3nccs3)C2)CC1`, the max response [1, 12] was 16.8%, the AC50 [1, 13] was 0.0141 µM [rising, full curve] and the AC50 [1, 14] was 0.0178 µM [rising, full curve]. The max response [1, 15] was 21.3%.
In the case of `O=C1Nc2cc(Cl)c(Cl)cc2N2CCNC[C@H]12`, the max response [1, 12] was 79.5%, the AC50 [1, 13] was 28.2 µM [rising, partial curve, poor fit] and the AC50 [1, 14] was 25.1 µM [rising, partial curve, poor fit]. It also gave a max response [1, 15] of 101%.
For `COC(=O)N1CCN(C(=O)Cc2ccc(Cl)c(Cl)c2)[C@H](CN2CCCC2)C1`, the max response [1, 12] was 100%, the AC50 [1, 13] was 20 µM [rising, partial curve, poor fit] and the AC50 [1, 14] was 20 µM [rising, partial curve, poor fit]. The max response [1, 15] was 128%.
In the case of `C=CCN1CCC23c4c5ccc(O)c4O[C@H]2C(=O)CC[C@@]3(O)C1C5` (some centres not stated), the max response [1, 12] was 46.1%, the AC50 [1, 13] was 15.8 µM [falling, single point] and the AC50 [1, 14] was 15.8 µM [falling, single point]. It also gave a max response [1, 15] of 47.3%.
For `C[CH2][Hg][S]c1ccccc1C(=O)O`, the max response [1, 12] was -67.9%, the AC50 [1, 13] was 15.8 µM [falling, partial curve] and the AC50 [1, 14] was 7.08 µM [falling, full curve]. For the same compound, the max response [1, 15] was -103%, the AC50 ([4]; measured here: W460 blue channel fit) was 20 µM [falling, full curve, poor fit] and the AC50 ([4]; measured here: W530 green channel, cytotoxicity/artifact) was 28.2 µM [rising, single point]. The max response [5] was -62.2%, the AC50 [6] was 22.4 µM [falling, full curve] and the AC50 [7] was 3.55 µM [falling, full curve]. The max response [8] was -29.7%, the AC50 ([9]; measured here: 460 nm blue channel) was 5.01 µM [falling, full curve] and the AC50 ([9]; measured here: 530 nm viability channel) was 11.2 µM [falling, full curve]. The AC50 [10] was 3.16 µM [falling, single point].
With `COc1cc2c(cc1OC)-c1c(O)c(OC)cc3c1[C@H](C2)N(C)CC3` the max response [1, 12] was 77%, the AC50 [1, 13] was 14.1 µM [rising, partial curve] and the AC50 [1, 14] was 17.8 µM [rising, partial curve, poor fit]. It also gave a max response [1, 15] of 97.8%.
For `N#CC(C#N)=Cc1ccc(O)c(O)c1`, the max response [1, 12] was 79.1% and -35.5%, the AC50 [1, 13] was 8.91 µM [rising, partial curve, poor fit] and the AC50 [1, 14] was 12.6 µM [rising, partial curve]. For the same compound, the max response [1, 15] was 97.8% and -47.9%, the AC50 [2] was 75.7 µM [falling, single point] and the IC50 [11] was 1.72 µM [rising, full curve].
For `C[C@@H]1O[C@H](O[C@@H]2C[C@@H](O)[C@]3(CO)[C@H]4[C@H](O)C[C@]5(C)[C@@H](C6=CC(=O)OC6)CC[C@@]5(O)[C@@H]4CC[C@]3(O)C2)[C@@H](O)[C@H](O)[C@H]1O`, the max response [1, 12] was 3.46%, the AC50 [1, 13] was 12.6 µM [rising, partial curve, poor fit] and the AC50 [1, 14] was 12.6 µM [rising, partial curve, poor fit]. For the same compound, the max response [1, 15] was 7.78%.
